Experiments:
Mouse [1] = assay: concentration in plasma after dosing; conditions: 0.5 h; dosed: Benzophenone; 30 mg/kg; oral; Male; B6C3F1
Mouse [2] = assay: concentration in plasma after dosing; conditions: 2 h; dosed: Benzophenone; 60 mg/kg; oral; Female; B6C3F1
Rat [3] = assay: concentration in plasma after dosing; conditions: 16 h; dosed: Benzophenone; 5 mg/kg; oral; Male; F344
Mouse [4] = assay: concentration in plasma after dosing; conditions: 0.25 h; dosed: Benzophenone; 60 mg/kg; oral; Male; B6C3F1
Mouse [5] = assay: concentration in plasma after dosing; conditions: 2 h; dosed: Benzophenone; 15 mg/kg; iv; Female; B6C3F1
Mouse [6] = assay: concentration in plasma after dosing; conditions: 0.5 h; dosed: Benzophenone; 15 mg/kg; iv; Female; B6C3F1
Rat [7] = assay: concentration in blood after dosing; conditions: 0.5 h; dosed: Benzophenone; 5 mg/kg; oral; Male; F344
Mouse [8] = assay: concentration in plasma after dosing; conditions: 0.5 h; dosed: Benzophenone; 30 mg/kg; oral; Female; B6C3F1
Rat [9] = assay: concentration in plasma after dosing; conditions: dosed: Benzophenone, 5 mg/kg, oral, Male, F344
Mouse [10] = assay: concentration in plasma after dosing; conditions: 8 h; dosed: Benzophenone; 30 mg/kg; oral; Male; B6C3F1
Mouse [11] = assay: concentration in plasma after dosing; conditions: 1 h; dosed: Benzophenone; 15 mg/kg; iv; Female; B6C3F1
Rat [12] = assay: concentration in plasma after dosing; conditions: dosed: Benzophenone, 10 mg/kg, oral, Male, F344
Mouse [13] = assay: concentration in plasma after dosing; conditions: 1.5 h; dosed: Benzophenone; 15 mg/kg; iv; Male; B6C3F1
Rat [14] = assay: concentration in blood after dosing; conditions: 0.125 h; dosed: Benzophenone; 5 mg/kg; oral; Female; F344
Mouse [15] = assay: concentration in plasma after dosing; conditions: dosed: Benzophenone, B6C3F1
Rat [16] = assay: concentration in plasma after dosing; conditions: dosed: Benzophenone, 5 mg/kg, oral, Female, F344
Mouse [17] = assay: concentration in plasma after dosing; conditions: 1.25 h; dosed: Benzophenone; 15 mg/kg; iv; Male; B6C3F1

In the case of `O=C(c1ccccc1)c1ccccc1` [Benzophenone], the concentration in plasma (Mouse [1]) is reported as 645 ng/mL, the concentration in plasma (Mouse [2]) is reported as 358 ng/mL and the concentration in plasma (Rat [3]) is reported as 38.7 ng/mL. For the same molecule, the concentration in plasma (Mouse [4]) was 2430 ng/mL, the concentration in plasma (Mouse [5]) was 95.1 ng/mL and the concentration in plasma (Mouse [6]) was 1490 ng/mL. For the same molecule, the concentration in blood (Rat [7]) was 637 ng/mL, the concentration in plasma (Mouse [8]) was 603 ng/mL and the concentration in plasma (Rat [9]; 0.125 h) was 127 ng/mL. The concentration in plasma (Rat [9]; 3 h) was 104 ng/mL, the concentration in plasma (Mouse [10]) was 13.3 ng/mL and the concentration in plasma (Mouse [11]) was 377 ng/mL. For the same molecule, the concentration in plasma (Rat [12]; 0.125 h) was 413 ng/mL, the concentration in plasma (Rat [12]; 3 h) was 184 ng/mL and the concentration in plasma (Mouse [13]) was 180 ng/mL. For the same molecule, the concentration in blood (Rat [14]) was 323 ng/mL, the concentration in plasma (Mouse [15]; 2.5 min, 15 mg/kg, oral, Female) was 351 ng/mL and the concentration in plasma (Mouse [15]; 2.5 min, 15 mg/kg, oral, Male) was 172 ng/mL. For the same molecule, the concentration in plasma (Mouse [15]; 2.5 min, 30 mg/kg, oral, Female) was 390 ng/mL, the concentration in plasma (Mouse [15]; 2.5 min, 30 mg/kg, oral, Male) was 1420 ng/mL and the concentration in plasma (Mouse [15]; 2.5 min, 60 mg/kg, oral, Female) was 546 ng/mL. The concentration in plasma (Mouse [15]; 2.5 min, 60 mg/kg, oral, Male) was 952 ng/mL, the concentration in plasma (Mouse [15]; 4 min, 15 mg/kg, iv, Female) was 4180 ng/mL and the concentration in plasma (Mouse [15]; 4 min, 15 mg/kg, iv, Male) was 4630 ng/mL. The concentration in plasma (Mouse [15]; 5 min, 15 mg/kg, oral, Female) was 602 ng/mL, the concentration in plasma (Mouse [15]; 5 min, 15 mg/kg, oral, Male) was 496 ng/mL and the concentration in plasma (Mouse [15]; 5 min, 30 mg/kg, oral, Female) was 444 ng/mL. For the same molecule, the concentration in plasma (Mouse [15]; 5 min, 30 mg/kg, oral, Male) was 1590 ng/mL, the concentration in plasma (Mouse [15]; 5 min, 60 mg/kg, oral, Female) was 1680 ng/mL and the concentration in plasma (Mouse [15]; 5 min, 60 mg/kg, oral, Male) was 5730 ng/mL. The concentration in plasma (Mouse [15]; 7 min, 15 mg/kg, iv, Female) was 3740 ng/mL, the concentration in plasma (Mouse [15]; 7 min, 15 mg/kg, iv, Male) was 2700 ng/mL and the concentration in plasma (Mouse [15]; 0.125 h, 15 mg/kg, oral, Female) was 801 ng/mL. It also gave a concentration in plasma (Mouse [15]; 0.125 h, 15 mg/kg, oral, Male) of 741 ng/mL, a concentration in plasma (Mouse [15]; 0.125 h, 30 mg/kg, oral, Female) of 1080 ng/mL and a concentration in plasma (Mouse [15]; 0.125 h, 30 mg/kg, oral, Male) of 1430 ng/mL. For the same molecule, the concentration in plasma (Mouse [15]; 0.125 h, 60 mg/kg, oral, Female) was 2360 ng/mL, the concentration in plasma (Mouse [15]; 0.125 h, 60 mg/kg, oral, Male) was 2410 ng/mL and the concentration in plasma (Mouse [15]; 10 min, 15 mg/kg, iv, Female) was 2160 ng/mL. For the same molecule, the concentration in plasma (Mouse [15]; 10 min, 15 mg/kg, iv, Male) was 3420 ng/mL, the concentration in plasma (Mouse [15]; 10 min, 15 mg/kg, oral, Female) was 527 ng/mL and the concentration in plasma (Mouse [15]; 10 min, 15 mg/kg, oral, Male) was 502 ng/mL. For the same molecule, the concentration in plasma (Mouse [15]; 10 min, 30 mg/kg, oral, Female) was 691 ng/mL, the concentration in plasma (Mouse [15]; 10 min, 30 mg/kg, oral, Male) was 587 ng/mL and the concentration in plasma (Mouse [15]; 10 min, 60 mg/kg, oral, Female) was 1750 ng/mL. The concentration in plasma (Mouse [15]; 10 min, 60 mg/kg, oral, Male) was 3100 ng/mL, the concentration in plasma (Mouse [15]; 0.25 h, 15 mg/kg, iv, Female) was 2340 ng/mL and the concentration in plasma (Mouse [15]; 0.25 h, 15 mg/kg, iv, Male) was 3350 ng/mL. The concentration in plasma (Mouse [15]; 0.25 h, 15 mg/kg, oral, Female) was 385 ng/mL, the concentration in plasma (Mouse [15]; 0.25 h, 15 mg/kg, oral, Male) was 490 ng/mL and the concentration in plasma (Mouse [15]; 0.25 h, 30 mg/kg, oral, Female) was 772 ng/mL. The concentration in plasma (Mouse [15]; 0.25 h, 30 mg/kg, oral, Male) was 1320 ng/mL, the concentration in plasma (Mouse [15]; 0.25 h, 60 mg/kg, oral, Female) was 2930 ng/mL and the concentration in plasma (Mouse [15]; 0.25 h, 60 mg/kg, oral, Male) was 2290 ng/mL. It also gave a concentration in plasma (Mouse [15]; 20 min, 15 mg/kg, iv, Female) of 1510 ng/mL, a concentration in plasma (Mouse [15]; 20 min, 15 mg/kg, iv, Male) of 1460 ng/mL and a concentration in plasma (Mouse [15]; 0.5 h, 15 mg/kg, iv, Female) of 1530 ng/mL. For the same molecule, the concentration in plasma (Mouse [15]; 0.5 h, 15 mg/kg, iv, Male) was 1280 ng/mL, the concentration in plasma (Mouse [15]; 0.5 h, 15 mg/kg, oral, Female) was 212 ng/mL and the concentration in plasma (Mouse [15]; 0.5 h, 15 mg/kg, oral, Male) was 237 ng/mL. The concentration in plasma (Mouse [15]; 0.5 h, 30 mg/kg, oral, Female) was 402 ng/mL, the concentration in plasma (Mouse [15]; 0.5 h, 30 mg/kg, oral, Male) was 834 ng/mL and the concentration in plasma (Mouse [15]; 0.5 h, 60 mg/kg, oral, Female) was 1640 ng/mL. For the same molecule, the concentration in plasma (Mouse [15]; 0.5 h, 60 mg/kg, oral, Male) was 1460 ng/mL, the concentration in plasma (Mouse [15]; 0.75 h, 15 mg/kg, iv, Female) was 575 ng/mL and the concentration in plasma (Mouse [15]; 0.75 h, 15 mg/kg, iv, Male) was 699 ng/mL. For the same molecule, the concentration in plasma (Mouse [15]; 0.75 h, 15 mg/kg, oral, Female) was 179 ng/mL, the concentration in plasma (Mouse [15]; 0.75 h, 15 mg/kg, oral, Male) was 216 ng/mL and the concentration in plasma (Mouse [15]; 1 h, 15 mg/kg, iv, Female) was 309 ng/mL. The concentration in plasma (Mouse [15]; 1 h, 15 mg/kg, iv, Male) was 384 ng/mL, the concentration in plasma (Mouse [15]; 1 h, 15 mg/kg, oral, Female) was 139 ng/mL and the concentration in plasma (Mouse [15]; 1 h, 15 mg/kg, oral, Male) was 139 ng/mL. The concentration in plasma (Mouse [15]; 1 h, 30 mg/kg, oral, Female) was 342 ng/mL, the concentration in plasma (Mouse [15]; 1 h, 30 mg/kg, oral, Male) was 274 ng/mL and the concentration in plasma (Mouse [15]; 1 h, 60 mg/kg, oral, Female) was 1040 ng/mL. It also gave a concentration in plasma (Mouse [15]; 1 h, 60 mg/kg, oral, Male) of 736 ng/mL, a concentration in plasma (Mouse [15]; 1.25 h, 15 mg/kg, iv, Female) of 201 ng/mL and a concentration in plasma (Mouse [15]; 1.25 h, 15 mg/kg, iv, Male) of 269 ng/mL. For the same molecule, the concentration in plasma (Mouse [15]; 1.5 h, 15 mg/kg, iv, Female) was 224 ng/mL, the concentration in plasma (Mouse [15]; 1.5 h, 15 mg/kg, iv, Male) was 149 ng/mL and the concentration in plasma (Mouse [15]; 1.5 h, 15 mg/kg, oral, Female) was 152 ng/mL. The concentration in plasma (Mouse [15]; 1.5 h, 15 mg/kg, oral, Male) was 46.1 ng/mL, the concentration in plasma (Mouse [15]; 1.5 h, 30 mg/kg, oral, Female) was 174 ng/mL and the concentration in plasma (Mouse [15]; 1.5 h, 30 mg/kg, oral, Male) was 187 ng/mL. For the same molecule, the concentration in plasma (Mouse [15]; 2 h, 15 mg/kg, iv, Female) was 135 ng/mL, the concentration in plasma (Mouse [15]; 2 h, 15 mg/kg, iv, Male) was 137 ng/mL and the concentration in plasma (Mouse [15]; 2 h, 15 mg/kg, oral, Female) was 61.8 ng/mL. The concentration in plasma (Mouse [15]; 2 h, 15 mg/kg, oral, Male) was 29.3 ng/mL, the concentration in plasma (Mouse [15]; 2 h, 30 mg/kg, oral, Female) was 170 ng/mL and the concentration in plasma (Mouse [15]; 2 h, 30 mg/kg, oral, Male) was 124 ng/mL. It also gave a concentration in plasma (Mouse [15]; 2 h, 60 mg/kg, oral, Female) of 502 ng/mL, a concentration in plasma (Mouse [15]; 2 h, 60 mg/kg, oral, Male) of 936 ng/mL and a concentration in plasma (Mouse [15]; 2.5 h, 15 mg/kg, iv, Female) of 119 ng/mL. The concentration in plasma (Mouse [15]; 2.5 h, 15 mg/kg, iv, Male) was 60.5 ng/mL, the concentration in plasma (Mouse [15]; 3 h, 15 mg/kg, iv, Female) was 66.8 ng/mL and the concentration in plasma (Mouse [15]; 3 h, 15 mg/kg, iv, Male) was 26.7 ng/mL. It also gave a concentration in plasma (Mouse [15]; 3 h, 15 mg/kg, oral, Female) of 76.1 ng/mL, a concentration in plasma (Mouse [15]; 3 h, 15 mg/kg, oral, Male) of 18.2 ng/mL and a concentration in plasma (Mouse [15]; 3 h, 30 mg/kg, oral, Female) of 51.1 ng/mL. It also gave a concentration in plasma (Mouse [15]; 3 h, 30 mg/kg, oral, Male) of 36.4 ng/mL, a concentration in plasma (Mouse [15]; 3 h, 60 mg/kg, oral, Female) of 254 ng/mL and a concentration in plasma (Mouse [15]; 3 h, 60 mg/kg, oral, Male) of 149 ng/mL. It also gave a concentration in plasma (Mouse [15]; 4 h, 15 mg/kg, oral, Female) of 28.1 ng/mL, a concentration in plasma (Mouse [15]; 4 h, 15 mg/kg, oral, Male) of 13.8 ng/mL and a concentration in plasma (Mouse [15]; 6 h, 15 mg/kg, oral, Female) of 26.1 ng/mL. The concentration in plasma (Mouse [15]; 6 h, 15 mg/kg, oral, Male) was 77.6 ng/mL, the concentration in plasma (Mouse [15]; 6 h, 30 mg/kg, oral, Female) was 27.1 ng/mL and the concentration in plasma (Mouse [15]; 6 h, 30 mg/kg, oral, Male) was 36.4 ng/mL. For the same molecule, the concentration in plasma (Mouse [15]; 6 h, 60 mg/kg, oral, Female) was 133 ng/mL, the concentration in plasma (Mouse [15]; 6 h, 60 mg/kg, oral, Male) was 59.6 ng/mL and the concentration in plasma (Mouse [15]; 8 h, 30 mg/kg, oral, Male) was 41.6 ng/mL. It also gave a concentration in plasma (Mouse [15]; 10 h, 30 mg/kg, oral, Male) of 12 ng/mL, a concentration in plasma (Mouse [15]; 10 h, 60 mg/kg, oral, Female) of 12.8 ng/mL and a concentration in plasma (Mouse [15]; 10 h, 60 mg/kg, oral, Male) of 10.3 ng/mL. For the same molecule, the concentration in plasma (Rat [16]; 2.5 min) was 31.8 ng/mL, the concentration in plasma (Rat [16]; 1 h) was 177 ng/mL and the concentration in plasma (Mouse [17]) was 351 ng/mL.
